# Reference: the supplement of paper PMC8728848
# This is one part of the list.
# B1: TREM-2 (Mus musculus), Q99NH8 (protein)
# chain: MGPLHQFLLLLITALSQALNTTVLQGMAGQSLRVSCTYDALKHWGRRKAWCRQLGEEGPCQRVVSTHGVWLLAFLKKRNGSTVIADDTLAGTVTITLKNLQAGDAGLYQCQSLRGREAEVLQKVLVEVLEDPLDDQDAGDLWVPEESSSFEGAQVEHSTSRNQETSFPPTSILLLLACVLLSKFLAASILWAVARGRQKPGTPVVRGLDCGQDAGHQLQILTGPGGT
# Experiments:
# Experiment in all cases: glycan array binding signal (z-score within array); higher = stronger binding
# Details in all cases: glycan notation: IUPAC condensed, linker removed
# Gal4S6S(b1-4)GlcNAc = target: Gal4S6S(b1-4)GlcNAc
# Outline: (§1)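 From the Consortium for Functional Glycomics database, 3228 arrays were curated, keeping only those whose protein sequence was available. Binding is given as a within-array Z-score averaged across arrays sharing a protein sequence and across linkers. Negative Z-scores can be read as non-binding.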
# Gal6S(b1-4)Glc = target: Gal6S(b1-4)Glc
# Outline: as §1
# Gal6S(b1-4)Glc6S = target: Gal6S(b1-4)Glc6S
# Outline: as §1
# Gal6S(b1-4)GlcNAc = target: Gal6S(b1-4)GlcNAc
# Outline: as §1
# GalNAc(a1-3)Gal = target: GalNAc(a1-3)Gal
# Outline: as §1
# GalNAc(a1-3)GalNAc = target: GalNAc(a1-3)GalNAc
# Outline: as §1
# [1] = target: GalNAc(b1-3)Gal(a1-4)Gal(b1-4)GlcNAc
# Outline: as §1
# GalNAc(b1-3)GalNAc = target: GalNAc(b1-3)GalNAc
# Outline: as §1
# GalNAc(b1-4)GlcNAc = target: GalNAc(b1-4)GlcNAc
# Outline: as §1
# Glc(a1-4)Glc = target: Glc(a1-4)Glc
# Outline: as §1
# Glc(a1-6)Glc(a1-6)Glc = target: Glc(a1-6)Glc(a1-6)Glc
# Outline: as §1
# Glc(b1-4)Glc = target: Glc(b1-4)Glc
# Outline: as §1
# Glc(b1-6)Glc = target: Glc(b1-6)Glc
# Outline: as §1
# GlcA(b1-3)Gal = target: GlcA(b1-3)Gal
# Outline: as §1
# GlcA(b1-6)Gal = target: GlcA(b1-6)Gal
# Outline: as §1
# [2] = target: GlcNAc(a1-3)Gal(b1-4)GlcNAc
# Outline: as §1
# [3] = target: GlcNAc(a1-6)Gal(b1-4)GlcNAc
# Outline: as §1
# [4] = target: GlcNAc(b1-2)Gal(b1-3)GalNAc
# Outline: as §1
# [5] = target: GlcNAc(b1-2)Man(a1-3)[GlcNAc(b1-2)Man(a1-6)]Man(b1-4)GlcNAc(b1-4)GlcNAc
# Outline: as §1
# GlcNAc(b1-3)Gal = target: GlcNAc(b1-3)Gal
# Outline: as §1
# [6] = target: GlcNAc(b1-3)Gal(b1-3)GalNAc
# Outline: as §1
# GlcNAc(b1-3)Gal(b1-4)Glc = target: GlcNAc(b1-3)Gal(b1-4)Glc
# Outline: as §1
# [7] = target: GlcNAc(b1-3)Gal(b1-4)GlcNAc
# Outline: as §1
# [8] = target: GlcNAc(b1-3)Gal(b1-4)GlcNAc(b1-3)Gal(b1-4)GlcNAc
# Outline: as §1
# GlcNAc(b1-3)GalNAc = target: GlcNAc(b1-3)GalNAc
# Outline: as §1
# [9] = target: GlcNAc(b1-3)[GlcNAc(b1-6)]Gal(b1-4)GlcNAc
# Outline: as §1
# [10] = target: GlcNAc(b1-3)[GlcNAc(b1-6)]GalNAc
# Outline: as §1
# [11] = target: GlcNAc(b1-3)[GlcNAc(b1-6)]GlcNAc(b1-4)GlcNAc
# Outline: as §1
# [12] = target: GlcNAc(b1-4)Gal(b1-4)GlcNAc
# Outline: as §1
# [13] = target: GlcNAc(b1-4)GlcNAc(b1-4)GlcNAc
# Outline: as §1
# [14] = target: GlcNAc(b1-4)GlcNAc(b1-4)GlcNAc(b1-4)GlcNAc(b1-4)GlcNAc
# Outline: as §1
# [15] = target: GlcNAc(b1-4)GlcNAc(b1-4)GlcNAc(b1-4)GlcNAc(b1-4)GlcNAc(b1-4)GlcNAc
# Outline: as §1
# [16] = target: GlcNAc(b1-4)[GlcNAc(b1-6)]GalNAc
# Outline: as §1
# [17] = target: GlcNAc(b1-6)Gal(b1-4)GlcNAc
# Outline: as §1
# GlcNAc(b1-6)GalNAc = target: GlcNAc(b1-6)GalNAc
# Outline: as §1
# Kdn(a2-3)Gal(b1-3)GlcNAc = target: Kdn(a2-3)Gal(b1-3)GlcNAc
# Outline: as §1
# Kdn(a2-3)Gal(b1-4)GlcNAc = target: Kdn(a2-3)Gal(b1-4)GlcNAc
# Outline: as §1
# [18] = target: Man(a1-2)Man(a1-2)Man(a1-3)Man
# Outline: as §1
# [19] = target: Man(a1-2)Man(a1-2)Man(a1-6)[Man(a1-3)]Man
# Outline: as §1
# Man(a1-2)Man(a1-3)Man = target: Man(a1-2)Man(a1-3)Man
# Outline: as §1
# [20] = target: Man(a1-2)Man(a1-3)[Man(a1-2)Man(a1-6)]Man
# Outline: as §1
# [21] = target: Man(a1-2)Man(a1-3)[Man(a1-2)Man(a1-6)]Man(a1-6)[Man(a1-2)Man(a1-2)Man(a1-3)]Man(b1-4)GlcNAc(b1-4)GlcNAc
# Outline: as §1
# [22] = target: Man(a1-2)Man(a1-3)[Man(a1-6)]Man(a1-6)[Man(a1-2)Man(a1-3)]Man(b1-4)GlcNAc(b1-4)GlcNAc
# Outline: as §1
# [23] = target: Man(a1-2)Man(a1-6)[Man(a1-3)]Man(a1-6)[Man(a1-2)Man(a1-2)Man(a1-3)]Man(b1-4)GlcNAc(b1-4)GlcNAc
# Outline: as §1
# Man(a1-3)[Man(a1-6)]Man = target: Man(a1-3)[Man(a1-6)]Man
# Outline: as §1
binder,measurement,setting,value
B1,glycan array binding signal (z-score),Gal4S6S(b1-4)GlcNAc,2.97
same,glycan array binding signal (z-score),Gal6S(b1-4)Glc,0.126
same,glycan array binding signal (z-score),Gal6S(b1-4)Glc6S,3.17
same,glycan array binding signal (z-score),Gal6S(b1-4)GlcNAc,0.153
same,glycan array binding signal (z-score),GalNAc(a1-3)Gal,-0.436
same,glycan array binding signal (z-score),GalNAc(a1-3)GalNAc,-0.483
same,glycan array binding signal (z-score),[1],-0.372
same,glycan array binding signal (z-score),GalNAc(b1-3)GalNAc,-0.372
same,glycan array binding signal (z-score),GalNAc(b1-4)GlcNAc,-0.434
same,glycan array binding signal (z-score),Glc(a1-4)Glc,-0.318
same,glycan array binding signal (z-score),Glc(a1-6)Glc(a1-6)Glc,-0.335
same,glycan array binding signal (z-score),Glc(b1-4)Glc,-0.093
same,glycan array binding signal (z-score),Glc(b1-6)Glc,0.039
same,glycan array binding signal (z-score),GlcA(b1-3)Gal,-0.086
same,glycan array binding signal (z-score),GlcA(b1-6)Gal,-0.047
same,glycan array binding signal (z-score),[2],-0.426
same,glycan array binding signal (z-score),[3],-0.352
same,glycan array binding signal (z-score),[4],-0.412
same,glycan array binding signal (z-score),[5],-0.206
same,glycan array binding signal (z-score),GlcNAc(b1-3)Gal,0.278
same,glycan array binding signal (z-score),[6],-0.421
same,glycan array binding signal (z-score),GlcNAc(b1-3)Gal(b1-4)Glc,-0.39
same,glycan array binding signal (z-score),[7],0.568
same,glycan array binding signal (z-score),[8],-0.296
same,glycan array binding signal (z-score),GlcNAc(b1-3)GalNAc,-0.464
same,glycan array binding signal (z-score),[9],-0.396
same,glycan array binding signal (z-score),[10],-0.337
same,glycan array binding signal (z-score),[11],-0.391
same,glycan array binding signal (z-score),[12],-0.413
same,glycan array binding signal (z-score),[13],-0.39
same,glycan array binding signal (z-score),[14],-0.348
same,glycan array binding signal (z-score),[15],-0.251
same,glycan array binding signal (z-score),[16],-0.383
same,glycan array binding signal (z-score),[17],-0.382
same,glycan array binding signal (z-score),GlcNAc(b1-6)GalNAc,-0.493
same,glycan array binding signal (z-score),Kdn(a2-3)Gal(b1-3)GlcNAc,-0.274
same,glycan array binding signal (z-score),Kdn(a2-3)Gal(b1-4)GlcNAc,-0.376
same,glycan array binding signal (z-score),[18],-0.305
same,glycan array binding signal (z-score),[19],-0.263
same,glycan array binding signal (z-score),Man(a1-2)Man(a1-3)Man,-0.367
same,glycan array binding signal (z-score),[20],-0.326
same,glycan array binding signal (z-score),[21],-0.321
same,glycan array binding signal (z-score),[22],-0.255
same,glycan array binding signal (z-score),[23],-0.114
same,glycan array binding signal (z-score),Man(a1-3)[Man(a1-6)]Man,-0.332
